In PubChem BioAssay AID1345083 (National Center for Advancing Translational Sciences (NCATS), 2018):
“And” between values parts separate entries of the source, which are not always exact repeats. Equal values may be shown once. About 6,200 (6.6%) of roughly 94,000 compounds were called active. The inconclusive results got no clear call from the source; some entries with a clear call stand among them for comparison. Calls follow the shape of the dose curve; as a rule, active = well fitted inhibition curve with a large enough effect; inconclusive = small, poorly fitted or top-dose-only effect; inactive = flat fitted curve, though single readings scatter. Where the call is inconclusive, the potency comes from a doubtful curve fit. Some structures have more than one record in an assay (separate samples or runs), and their calls can disagree.

Experiment: Cytotoxic Profiling in HEK 293 Cell Line of Diverse Libraries Using Quantitative High-Throughput Screening; also: nearly all actives have a fitted effect of over 60% in size
Details: HEK 293 viability, ATP luminescence (CellTiter-Glo), 48-72 h; series mostly up to 115 µM
In short: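 250 HEK 293 cells/well; compound by pintool; incubated 48 or 72 hr at 37 degree Celsius; CellTiter-Glo added, 10 min RT, luminescence imaged.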
Potency is read from the fitted curve at half-maximal effect; tags tell the direction and shape of the fitted curve.

Compound	Potency
O=C(Cn1c(=O)oc2ccccc21)NC1CCCN(CCCc2ccccc2)C1 (stereo not given)	inactive
O=C(CCCC1C(=O)Nc2ccccc21)NCCc1noc(-c2ccccc2)n1 (stereo not given)	inconclusive: 100 µM [inhibitor, single point]
CN(C)Cc1nnc(C2CC(NC(=O)c3ccc4c(c3)CCO4)C2)n1C (stereo not given)	inactive
COc1ccc(CNC(=O)C2CCN(Cc3ccccc3-c3ccccc3F)CC2)cc1	active: 44.7 µM
CS(=O)(=O)N1CCC(C2CCN(C(=O)C3CCOCC3)C2)CC1 (stereo not given)	inactive
OC(c1ccccc1)c1nc(Nc2ccc(Cl)cc2F)n[nH]1 (stereo not given)	inconclusive: 100 µM [inhibitor, partial curve, poor fit]
COc1ccc(-c2ccc(C(=O)N(C)C)c(Cl)c2)nn1	inconclusive: 20 µM [inhibitor, partial curve, poor fit]
Cn1ncc(N2CCOC(CCNC(=O)c3cccnn3)C2)cc1=O (stereo not given)	inactive
O=C(c1ccco1)N1CCC2(CC1)NCCc1c2[nH]c2ccccc12	inconclusive: 89.1 µM [inhibitor, single point]
COCCCn1c(C)cnc1CC1CCN(C(=O)Nc2ccc(C)c(C)c2)CC1	inconclusive: 35.5 µM [inhibitor, full curve]
COc1cccc(CNC(=O)c2cc3n(n2)CC(c2ccc(Cl)cc2)OC3)c1 (stereo not given)	inconclusive: 50.1 µM [inhibitor, partial curve, poor fit]
O=C(NCc1cccnc1)c1cc(-c2ccccc2F)cc2c1OCCN2Cc1cccnc1	inconclusive: 50.1 µM [inhibitor, partial curve, poor fit]
COc1ccc(C(=O)Nc2ccc(-c3nnc4n3CCCC4)cc2)cc1	inactive
COCCOC1CN(C2CCN(C(=O)c3cnccn3)CC2)C12CCCCC2 (stereo not given)	inactive
COc1ccccc1-c1ccc2c(C(=O)NCc3ccc4c(c3)OCO4)nn(C)c2n1	inactive
Fc1cccc(CN2CCNc3cc(Nc4cccnc4)ncc3C2)c1	inconclusive: 25.1 µM [inhibitor, partial curve, poor fit]
CC(C)CCC(C)Nc1ncnc2c1CN(C1CCCNCC1)C(=O)CN2C (stereo not given)	inactive
COc1cccc(CC(=O)N2CC[C@@H](NC(=O)c3ccncc3)[C@H](O)C2)c1	inactive
Cc1ccc(Nc2ccnc(N3CCCC(C(=O)NCc4ccc(C(F)(F)F)cc4)C3)n2)cc1 (stereo not given)	inactive
COc1ccc(C(=O)N2CCCC3(CC(C)=NO3)C2)cc1 (stereo not given)	inactive
Cn1cnc(S(=O)(=O)N2CCC3(CC2)CC(CC(=O)NC2CC2)CCO3)c1 (stereo not given)	inactive
COc1cccc(-c2cccc(C(=O)N[C@H]3C[C@@H]4OCC[C@H]34)c2)c1	inconclusive: 89.1 µM [inhibitor, single point]
O=C(NCc1cccc(Cl)c1)c1nc2sccn2c1-c1cccc(C(F)(F)F)c1	inconclusive: 50.1 µM [inhibitor, partial curve, poor fit]
Cn1nc(C(=O)NC2CC(c3cc(N4CCCC4)ncn3)C2)ccc1=O (stereo not given)	inactive

Compound	Potency
Cn1ccc(C(=O)N2CC(COc3ccccc3)C3(C2)CN(c2ccccc2)C3)n1 (stereo not given)	inconclusive: 100 µM [inhibitor, partial curve, poor fit]
CCOCCn1cc(C2CCN(S(=O)(=O)c3ccc(CC)cc3)CC2)c2ccccc21	inconclusive: 20 µM [inhibitor, full curve]
Cc1nn(-c2ccccc2)c2c1C(C1CC1)N(C1CCN(Cc3c(F)cccc3F)CC1)C2=O (stereo not given)	inactive
Cn1nc(N2CCC(NC(=O)c3ccncn3)CC2)ccc1=O	inactive
CC(C)C(=O)Nc1cc(C2CC2)nn1-c1ccccc1	inactive
N#CC1CCN(C(=O)c2nc(-c3cccnc3)c3ccccn23)CC1	inactive
CCOCCNC(=O)CNC(=O)c1cccc(-c2ccsc2)c1	inactive
CSc1ccc(CNC(=O)C2CCN(c3cc(C(F)(F)F)ncn3)CC2)cc1	inconclusive: 22.4 µM [inhibitor, full curve]
O=C(NCCCc1ccccc1)c1nc2cccnc2n(C2CC2)c1=O	inactive
Cc1ccc(Nc2ccnc(N3CCCC3C(=O)N3CCC(Cc4ccccc4)CC3)n2)cc1 (stereo not given)	active: 14.1 µM
CCCn1c(C)cnc1CC1CCN(C(=O)c2ccc(OC)cc2OC)CC1	inconclusive: 89.1 µM [inhibitor, single point]
Cc1cccc(OCCc2noc(C3CCCN3C(=O)c3ccnn3C)n2)c1 (stereo not given)	inconclusive: 56.2 µM [inhibitor, partial curve, poor fit]
CCc1ccc(NC(=O)Cn2c(C)ccc(NS(=O)(=O)c3ccccc3)c2=O)cc1	inconclusive: 50.1 µM [inhibitor, partial curve, poor fit]
CCN1CC2(CCN(Cc3cnn(-c4ccc(F)cc4)c3)CC2)CC1=O	inconclusive: 35.5 µM [inhibitor, partial curve]
Cc1cn2nc(C(=O)NCc3ccccc3)cc2c(N(C)Cc2ccccc2)n1	inconclusive: 50.1 µM [inhibitor, partial curve, poor fit]
O=C(C1CCCN(c2nccc(Nc3ccccc3F)n2)C1)N1CCCC1 (stereo not given)	active: 44.7 µM
CNC(=O)[C@H]1C[C@]2(CCCCN(CCO)C2=O)N(C(=O)c2cccc(C#N)c2)[C@H]1c1ccco1	inactive
O=C(Nc1ccccc1)c1ccc2c(c1)n(Cc1cccc(F)c1)c(=O)c1ccnn12	inconclusive: 28.2 µM [inhibitor, full curve, poor fit]
N#Cc1cccnc1-c1cccc(C(=O)NCCNC(=O)c2ccc(C(F)(F)F)cc2)c1	inconclusive: 70.8 µM [inhibitor, partial curve, poor fit]
COc1ccccc1C(=O)N1CCC2(CC(C(C)C)=NO2)C1 (stereo not given)	inactive
Cc1ccc(CNC(=O)C2Cn3cccc3C(=O)N2CC(C)C)o1 (stereo not given)	inactive
O=C1c2c(-c3nc(-c4ccsc4)no3)nnn2CCN1Cc1ccccc1F	inconclusive: 79.4 µM [inhibitor, single point]
CC(C)CNC(=O)c1cc(-c2cccc(C(F)(F)F)c2)nc2c1cnn2C	inactive
COc1cccc(-c2cc3c(=O)n(CCNC(=O)c4cccc5[nH]ccc45)ccn3n2)c1	inconclusive: 17.8 µM [inhibitor, full curve, poor fit]

Compound	Potency
Cc1cccc(OCC(=O)N2[C@@H]3CC[C@H]2CC(NC(=O)c2cnc(C)cn2)C3)c1 (stereo not given in full)	inconclusive: 89.1 µM [inhibitor, single point]
COc1ccc(-c2ccccc2NC(=O)C2CCCN(CC=C(C)C)C2)cc1 (stereo not given)	inconclusive: 31.6 µM [inhibitor, full curve]
CN1C(=O)C(CC(=O)N2CCCOCC2)(Cc2ccccc2)c2ccccc21 (stereo not given)	inactive
CC(C)C(=O)N[C@H]1C[C@@H](Cc2cc(CN3CCOCC3)on2)C1(C)C	inactive
CCOC(=O)C1CCCN(C(=O)Cc2ccc(N(Cc3ccc(C)cc3)C(=O)c3ccco3)cc2)C1 (stereo not given)	inconclusive: 39.8 µM [inhibitor, partial curve, poor fit]
NC(=O)NCc1cn(C2CCN(Cc3cc4ccccc4s3)CC2)nn1	inactive
CS(=O)(=O)N1CCC(Cc2ccc(C(=O)NCCc3ccccc3)cc2)CC1	active: 11.2 µM
O=C(c1ccccn1)N1CC(F)(F)C[C@H]1c1nc(-c2ccncc2)no1	inconclusive: 35.5 µM [inhibitor, single point]
COc1cccc(C(=O)N2CCC3(CC2)CC(=O)N(c2ccccc2)c2ccccc2O3)c1	inconclusive: 79.4 µM [inhibitor, partial curve]
Cc1nc(-c2ccc(F)cc2)n(Cc2cccc(Cl)c2)c(=O)c1CCO	inconclusive: 56.2 µM [inhibitor, partial curve, poor fit]
COCc1nc(C2CCCN(C(=O)C3CCCC3)C2)no1 (stereo not given)	inactive
O=C(NCC1CCCCC1)C1CN(c2ccnc3ccnn23)C1	active: 25.1 µM
O=C(NC1CCN(Cc2cccc(-c3cccs3)c2)CC1)c1cccc(Cl)c1	inactive and active: 20 µM
COc1ccccc1-c1ccc(CN2CCCCC2C(=O)NCc2cccc(F)c2)cc1 (stereo not given)	active: 28.2 µM and active: 31.6 µM and inconclusive: 5.01 µM [inhibitor, full curve, poor fit]
CC(C)NC(=O)C1CCCN(Cc2cccc(-c3cccs3)c2)C1 (stereo not given)	inconclusive: 50.1 µM [inhibitor, partial curve, poor fit]
CC(C)(C)c1ccc(-c2cc(C[C@H]3CNCC[C@H]3CC(=O)N3CCN(Cc4ccccc4)CC3)no2)cc1	inconclusive: 17.8 µM [inhibitor, full curve, poor fit]
CN(Cc1cccnc1)C1CN(C(=O)c2cnn(C)c2)C1	inactive
Cc1cccc(C(=O)NC2CCN(c3cc(-c4ccccc4)[nH]n3)CC2)c1	inconclusive: 89.1 µM [inhibitor, partial curve, poor fit]
COc1ccc(NC(=O)C2CN(S(=O)(=O)C3CC3)CC23CCCCC3)cc1 (stereo not given)	inactive
O=C(COc1ccccc1)N[C@H]1CO[C@H]2[C@@H]1OC[C@@H]2Nc1nccc(-c2ccco2)n1	inconclusive: 112 µM [inhibitor, single point]
Cc1cccc(C(=O)N2CCCC(n3cc(-c4nc(C(C)C)no4)nn3)C2)c1 (stereo not given)	inconclusive: 70.8 µM [inhibitor, partial curve, poor fit]
N#Cc1ccc(CN2CCc3nc(N4CCc5ccccc5C4)[nH]c(=O)c3CC2)cc1	inactive
